Five molecules from PMC10185345 can be followed below.

By UniProt entry, the sequences of proteins in these tests, tags left out.
UniProt Q9DAK2: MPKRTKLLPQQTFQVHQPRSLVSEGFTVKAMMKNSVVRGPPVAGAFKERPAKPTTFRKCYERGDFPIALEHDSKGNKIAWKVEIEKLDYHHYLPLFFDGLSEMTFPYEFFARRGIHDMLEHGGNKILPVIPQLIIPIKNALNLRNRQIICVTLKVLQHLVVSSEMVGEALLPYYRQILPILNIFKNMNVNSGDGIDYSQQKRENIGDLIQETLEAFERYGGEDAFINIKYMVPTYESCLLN

In test [1] the target is T1, DNALI1/FLAG (mouse Dnali1 cDNA in pCS3+ FLT) (mouse) (UniProt Q8BVN8).
T1 sequence: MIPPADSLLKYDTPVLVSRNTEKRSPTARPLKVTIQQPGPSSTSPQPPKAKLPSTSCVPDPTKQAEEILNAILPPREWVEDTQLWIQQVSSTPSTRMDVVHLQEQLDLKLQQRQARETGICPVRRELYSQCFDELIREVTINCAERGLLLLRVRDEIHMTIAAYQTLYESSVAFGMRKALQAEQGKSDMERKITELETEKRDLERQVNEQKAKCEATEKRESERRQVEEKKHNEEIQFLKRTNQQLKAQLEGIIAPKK
The test can be described thus: co-IP; COS-1 cells co-transfected with DNALI1/FLAG and MEIG1; lysate immunoprecipitated with anti-Flag antibody; blots with anti-Flag and anti-MEIG1; mouse normal IgG as control.

The target of test [2] is PACRG (Parkin co-regulated gene protein), full-length mouse coding sequence in pGBKT7 (mouse) (UniProt Q9DAK2). Description: two-hybrid; direct assay: pairs of plasmids co-transformed into AH109 yeast; growth on selection plates lacking leucine, histidine and tryptophan.
The target in test [3] is PACRG/Myc (mouse Pacrg cDNA in pCS2+ MT) (mouse) (UniProt Q9DAK2). Description: co-IP; COS-1 cells co-transfected with DNALI1/FLAG and PACRG/Myc; lysate immunoprecipitated with anti-MYC antibody, protein A beads, 4°C; blots with anti-MYC and anti-FLAG; mouse normal IgG as control.
In test [4] the target is His-tagged PACRG (full-length mouse Pacrg in the upstream site of pCDFDuet-1) (mouse) (UniProt Q9DAK2). Description: pull-down; co-purification: His-tagged PACRG and non-tagged DNALI1 co-expressed in bacteria; His-tagged PACRG purified from the lysate by nickel affinity chromatography; fractions examined by western blot. A general note: Immunoblotting shows a protein as a band on a membrane.

Test [5] addresses PACRG, endogenous in mouse testis (mouse (endogenous in testis)) (UniProt Q9DAK2). The test can be described thus: co-IP; mouse testis extract (150 mM NaCl, 50 mM Tris-HCl pH 8.0, 5 mM EDTA, 1% Triton X-100) immunoprecipitated with anti-PACRG antibody, protein A beads, 4°C; blot with anti-DNALI1.

Results are given in words; binding and its absence hold for the method and conditions named. For some assays here: In cells and extracts the contact can be indirect. Some entries that bind do so weakly or less than the wild type. For some assays here: Where a sequence is shown, tags or fusion partners need not be part of it.

B1: MEIG1 expressed in COS-1 cells (protein, UniProt Q61845 1-88)
chain: MATSDVKPKSISRAKKWSEEIENLYRFQQAGYRDEIEYKQVKQVAMVDRWPETGYVKKLQRRDNTFFYYNKERECEDKEVHKVKVYVY
Turning to B1, the binding entry in test [1] is listed as “no binding”.

B2: DNALI1 (axonemal dynein light intermediate polypeptide 1), mouse coding sequence in pGAD-T7 (protein, UniProt Q8BVN8 1-258)
chain: T1 sequence
For the molecule B2, the binding entry in test [2] is “binds”.

B3: DNALI1/FLAG (mouse Dnali1 cDNA in pCS3+ FLT) (protein, UniProt Q8BVN8 1-258)
chain: T1 sequence
Take B3: in test [3], the binding result is recorded as “binds”.

B4: DNALI1, non-tagged (full-length mouse Dnali1 in the downstream site of pCDFDuet-1) (protein, UniProt Q8BVN8 1-258)
chain: T1 sequence
As for B4, the binding entry in test [4] is “binds”.

B5: DNALI1, endogenous in mouse testis (protein, UniProt Q8BVN8 1-258)
chain: T1 sequence
As for B5, the binding entry in test [5] was “binds”.
